Results published in the supplement of paper PMC3334620.
The full ranking holds about 33,000 sequences; the median of “E-score (-0.5 to 0.5)” is about -0.012, and the highest 2% start at about 0.27. The list shows a part of the results.

The sequences below were run against T1, Vhr1 (UniProt P40522) (assay: PBM E-score (8-mer binding enrichment) (E-score (-0.5 to 0.5)); higher = stronger / more preferred TF binding; most listed sequences are background and not binding sites). Settings: protein concentration: 200 nM; construct: GST-full length.
T1 sequence: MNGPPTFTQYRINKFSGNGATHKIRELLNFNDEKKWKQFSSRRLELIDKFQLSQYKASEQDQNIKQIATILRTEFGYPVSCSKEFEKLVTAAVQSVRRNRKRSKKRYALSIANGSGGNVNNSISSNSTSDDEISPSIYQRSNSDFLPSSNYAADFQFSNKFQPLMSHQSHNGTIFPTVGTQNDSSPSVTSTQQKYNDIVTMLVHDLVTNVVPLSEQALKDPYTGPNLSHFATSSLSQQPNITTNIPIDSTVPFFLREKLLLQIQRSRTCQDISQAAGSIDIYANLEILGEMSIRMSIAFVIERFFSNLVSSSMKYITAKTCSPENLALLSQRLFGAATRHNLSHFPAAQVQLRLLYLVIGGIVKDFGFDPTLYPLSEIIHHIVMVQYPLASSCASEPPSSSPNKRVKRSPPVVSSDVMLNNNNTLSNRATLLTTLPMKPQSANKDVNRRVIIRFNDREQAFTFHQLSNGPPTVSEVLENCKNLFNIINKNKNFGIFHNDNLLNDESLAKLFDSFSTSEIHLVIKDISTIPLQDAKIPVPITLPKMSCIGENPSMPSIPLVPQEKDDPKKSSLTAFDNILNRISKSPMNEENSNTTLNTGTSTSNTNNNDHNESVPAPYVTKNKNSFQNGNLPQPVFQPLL
Procedure, shortened: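 PURExpress in vitro transcription/translation supplied GST-tagged yeast transcription factors, either full-length or DNA-binding domain. Applied at about 100-200 nM to universal all-10-mer Agilent arrays double-stranded by primer extension, the bound protein was detected with fluorescent anti-GST. E-scores, modified Wilcoxon-Mann-Whitney statistics, were given by the Universal PBM Analysis Suite to ungapped eight-base words pooled with their reverse complements after masliner normalisation.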

Sequence | PBM E-score
ACTTCCTC | -0.0661
CAGCCCTG | -0.064
AAGACAAA | -0.172
CAGCGGAC | 0.023
TAAAGGTA | -0.141
CACTAAAG | -0.0741
CTTTGATC | -0.0357
ATACCTCA | 0.128
ATTACAAC | -0.0561
CCCACTTA | 0.0215
CGCAACAG | -0.142
CCAGATCG | -0.0784
ATTTTCAA | -0.264
ACATAGAA | 0.169
AGCTGCCA | 0.022
CAAACTAC | 0.147
GCTCCCAC | -0.108
CGTTCCGC | -0.0349
CAACTGTA | 0.0365
CCACTTCG | 0.0216
ATTGTTTC | 0.217
ATGTCAGG | 0.0208
CCCGAGGA | -0.105
CACCTAAC | 0.0146
CTGGTTTA | -0.0732

Sequence | PBM E-score
TCTCGACA | -0.122
AGTACACA | 0.284
GCTTTCGA | -0.197
CAGCTACC | 0.0251
CAATCCGG | 0.161
ATTGCTCA | 0.0307
ATTTGCTC | 0.0575
AGATTGTG | 0.0611
CGACGCAG | -0.14
TCCCGTAA | -0.213
AGAGAAAG | -0.215
AACAGCTG | 0.00078
AACTGCAC | -0.0766
GCTGAAGA | -0.0896
GCAAGTGC | -0.0921
AACCCTAA | -0.043
ATAGAAGG | -0.191
AGCCCCTG | -0.146
AGTGCCCG | -0.113
CTGCGCTC | -0.204
ACGCGTCT | -0.18
GACGTCAA | -0.0965
AGATTTTC | -0.112
CGTCAGAC | 0.0113
AACGGCGC | 0.00854

Sequence | PBM E-score
CGTCCGAA | -0.0573
GTCTTTTA | -0.186
CACGGCAG | -0.0119
AACGTAAA | -0.15
ATGATGTG | 0.224
ATAGGTCC | 0.0453
CTAGGAAC | -0.199
CTACAGCC | -0.18
AAAACTGC | -0.161
AACCGTTG | -0.016
CGTGGACA | -0.105
ACGGTCGA | -0.0368
CGCATGCG | 0.157
ACAGGGCC | -0.12
GCACGGGC | -0.168
ATCTTTTA | -0.0843
AAAGCCGT | -0.195
CTGAATGA | 0.143
CGAGACAC | -0.0138
GTTGTTTA | 0.0832
AGGCCAAC | -0.156
CTGAATCA | 0.402
GCATGGAC | 0.0779
CAGACCGG | 0.0933
GCGGCCGC | 0.101

Sequence | PBM E-score
ACGAAGTC | -0.00207
ACACTCAT | 0.227
CCCTAATC | 0.0393
CATGCCCA | -0.0996
ACGAAAGG | -0.195
ATAAACGA | 0.0705
CAACGACG | 0.0308
AGCGTGTG | 0.04
ACTCTAGA | 0.19
ATCTTGGA | 0.0371
GCTTTTAC | -0.0421
GTGAACGA | 0.00095
CACGAGAA | -0.00753
GCGGTTAA | 0.0419
GACCTAGC | -0.186
CTCGTGAA | 0.0314
CCATCGGA | 0.0656
ATTGATGC | 0.228
GCATAACA | -0.116
CGATCGAG | 0.172
AGAGGCCG | -0.212
ATATAAAA | 0.0686
CCGGCACA | 0.00638
ACGGTTTA | 0.0279
ACTTATCT | -0.0327

Sequence | PBM E-score
CTCCGGAA | -0.0904
GACTACGC | 0.175
ACTATCCG | 0.187
ATATTTGG | 0.0253
CGATGGAC | 0.0476
AATTCAAC | 0.0395
ATAACAAG | 0.142
AAAGGTAA | -0.217
CCTACAGG | -0.253
TCTTTCCA | -0.157
CCAGCCCG | 0.0415
AATCGGCA | 0.056
CAAAAGAG | -0.00151
GGCAGTGA | 0.0755
AAAAGTTA | -0.0918
ACTTTCGA | -0.213
GCGTACGC | -0.197
GGGCAGAC | -0.141
CACCGGCC | -0.0357
CTCACTGA | 0.14
AAGATCGG | -0.104
GCGGTAAC | 0.00972
AAAACGTG | -0.22
GCCGCGCA | -0.0881
ACTCAGGA | 0.268

Sequence | PBM E-score
CCTATGGC | -0.135
AAACGGTC | -0.118
AGAATGGG | -0.0379
GGCCGAAA | 0.157
CTCCTTGC | -0.142
AACGAAGA | -0.0778
CCCTTAGC | -0.148
CGTTAAAC | -0.136
CACTAAAA | -0.0448
TATGATCA | 0.152
AGAGGTAA | -0.102
GATCCGAA | 0.104
ATGGAACA | -0.0846
AGGGAAAC | -0.222
GGCCGCAC | -0.00891
GATGTAAA | -0.0985
TCGTAACA | 0.101
AATCCCGT | 0.166
GGAAAAGA | -0.249
ATTACGGA | -0.0323
AGGATCTA | -0.316
GGTCTCCA | 0.0322
GAGTCTTA | 0.189
AATTACGA | 0.0693
CCTTGACG | -0.359

Sequence | PBM E-score
AGGTGGCC | -0.139
CACAAGGG | -0.168
ACACAGGT | 0.154
AGTGGGAC | 0.0716
ATAAGTAG | -0.0715
ATGCGAAA | 0.0354
CTTATCTA | -0.0638
CCTTCCAG | -0.164
GGCCCGCA | 0.0404
AGATGCCA | -0.0804
AATGAAGA | 0.192
AGAGCGTG | 0.0126
CCATGACC | 0.11
AGCCGCGC | 0.103
CCTAGTTC | -0.103
CAATGCGG | 0.109
AAGTATAG | -0.211
CACTAGGG | 0.0804
GGACACAC | 0.198
AGTACAAC | 0.0207
ACTCAGGG | 0.27
CGAGCGCG | 0.139
